Assay results taken from patent publication US11178870B2 (priority 2017, dated 2021).

Experiments:
[1] = system: Phytophthora infestans; format: in vivo; conditions: class of control value, Table 7
[2] = system: Colletotrichum orbiculare; conditions: 250 ppm spray, 2.5 ml/pot; investigated 6 to 10 days after inoculation
[3] = system: Magnaporthe grisea; format: in vivo; conditions: class of control value, Table 7

| SMILES | Test F control value (late blight on tomato) [1] | Test H control value (anthracnose on cucumber) [2] | Test A control value (blast on rice) [3] |
| --- | --- | --- | --- |
| Cn1c(-c2c(F)cccc2F)c(-c2sc(Br)cc2Cl)cc(Br)c1=O [Compound 442] | L (L shows the control value of 50% or less) | L (L shows the control value of 50% or less) | H (H shows the control value more than 50%) |
| Cc1cc(Br)sc1-c1ccc(=O)n(CC(F)F)c1-c1c(F)cccc1F [Compound 443] | L (L shows the control value of 50% or less) | H (H shows the control value more than 50%) | H (H shows the control value more than 50%) |
| CCn1c(-c2c(F)cccc2F)c(-c2ccsc2C)cc(Br)c1=O [Compound 444] | L (L shows the control value of 50% or less) | L (L shows the control value of 50% or less) | H (H shows the control value more than 50%) |
| Cc1ccsc1-c1cc(Cl)c(=O)n(CC(F)F)c1-c1c(F)cccc1F [Compound 445] | L (L shows the control value of 50% or less) | H (H shows the control value more than 50%) | H (H shows the control value more than 50%) |
| Cc1ccsc1-c1cc(Br)c(=O)n(CC(F)F)c1-c1c(F)cccc1F [Compound 446] | L (L shows the control value of 50% or less) | H (H shows the control value more than 50%) | H (H shows the control value more than 50%) |
| O=c1ccc(-n2cc(F)cn2)c(-c2ccc(F)cc2Br)n1CC(F)F [Compound 447] | L (L shows the control value of 50% or less) | L (L shows the control value of 50% or less) | H (H shows the control value more than 50%) |
| O=c1c(Cl)cc(-n2cc(F)cn2)c(-c2ccc(F)cc2Br)n1CC(F)F [Compound 448] | L (L shows the control value of 50% or less) | L (L shows the control value of 50% or less) | H (H shows the control value more than 50%) |
| O=c1c(Br)cc(-n2cc(F)cn2)c(-c2ccc(F)cc2Br)n1CC(F)F [Compound 449] | L (L shows the control value of 50% or less) | H (H shows the control value more than 50%) | H (H shows the control value more than 50%) |
| COc1ccc(-c2c(-n3cc(F)cn3)cc(Br)c(=O)n2CC(F)F)c(Br)c1 [Compound 450] | L (L shows the control value of 50% or less) | H (H shows the control value more than 50%) | H (H shows the control value more than 50%) |
| Cn1c(-c2ccc(F)cc2Cl)c(-n2cc(Cl)cn2)ccc1=O [Compound 451] | L (L shows the control value of 50% or less) | L (L shows the control value of 50% or less) | L (L shows the control value of 50% or less) |
| Cn1c(-c2ccc(F)cc2Cl)c(-n2cc(Cl)cn2)cc(Cl)c1=O [Compound 452] | L (L shows the control value of 50% or less) | H (H shows the control value more than 50%) | H (H shows the control value more than 50%) |
| Cn1c(-c2ccc(F)cc2Cl)c(-n2cc(Cl)cn2)cc(Br)c1=O [Compound 453] | L (L shows the control value of 50% or less) | H (H shows the control value more than 50%) | H (H shows the control value more than 50%) |
| CN1C(=O)CCC(c2ccsc2Br)=C1c1c(F)cccc1F [Compound 454] | L (L shows the control value of 50% or less) | H (H shows the control value more than 50%) | L (L shows the control value of 50% or less) |
| CN(C)n1c(-c2c(F)cccc2F)c(-c2ccsc2Cl)cc(Br)c1=O [Compound 455] | L (L shows the control value of 50% or less) | L (L shows the control value of 50% or less) | L (L shows the control value of 50% or less) |
| Cn1c(-c2c(F)cccc2F)c(-c2ccsc2Br)ccc1=O [Compound 456] | L (L shows the control value of 50% or less) | H (H shows the control value more than 50%) | H (H shows the control value more than 50%) |
| Cc1ccsc1C1=C(c2c(F)cccc2F)N(C)C(=O)CC1 [Compound 457] | L (L shows the control value of 50% or less) | H (H shows the control value more than 50%) | L (L shows the control value of 50% or less) |

| SMILES | Test F control value (late blight on tomato) [1] | Test H control value (anthracnose on cucumber) [2] | Test A control value (blast on rice) [3] |
| --- | --- | --- | --- |
| CCn1c(-c2ccc(F)cc2Cl)c(-c2ccsc2Cl)ccc1=O [Compound 458] | L (L shows the control value of 50% or less) | H (H shows the control value more than 50%) | H (H shows the control value more than 50%) |
| CCn1c(-c2ccc(F)cc2Cl)c(-c2ccsc2Cl)cc(Br)c1=O [Compound 459] | L (L shows the control value of 50% or less) | H (H shows the control value more than 50%) | H (H shows the control value more than 50%) |
| CCn1c(-c2ccc(F)cc2Cl)c(-c2ccsc2Cl)cc(Cl)c1=O [Compound 460] | L (L shows the control value of 50% or less) | H (H shows the control value more than 50%) | H (H shows the control value more than 50%) |
| Cn1c(-c2c(F)cccc2F)c(-n2cc(F)cn2)cc(Cl)c1=O [Compound 461] | L (L shows the control value of 50% or less) | H (H shows the control value more than 50%) | H (H shows the control value more than 50%) |
| Cn1c(-c2c(F)cccc2F)c(-n2cc(F)cn2)cc(Br)c1=O [Compound 462] | L (L shows the control value of 50% or less) | H (H shows the control value more than 50%) | H (H shows the control value more than 50%) |
| Cn1c(-c2ccc(F)cc2F)c(-n2cc(F)cn2)ccc1=O [Compound 463] | L (L shows the control value of 50% or less) | H (H shows the control value more than 50%) | L (L shows the control value of 50% or less) |
| Cn1c(-c2ccc(F)cc2F)c(-n2cc(F)cn2)cc(Cl)c1=O [Compound 464] | L (L shows the control value of 50% or less) | H (H shows the control value more than 50%) | H (H shows the control value more than 50%) |
| Cn1c(-c2ccc(F)cc2F)c(-n2cc(F)cn2)cc(Br)c1=O [Compound 465] | L (L shows the control value of 50% or less) | H (H shows the control value more than 50%) | H (H shows the control value more than 50%) |
| CCn1c(-c2ccc(N3CCCC3)cc2F)c(-n2ncc(C)c2Cl)cc(Br)c1=O [Compound 466] | L (L shows the control value of 50% or less) | L (L shows the control value of 50% or less) | H (H shows the control value more than 50%) |
| CNn1c(-c2c(F)cccc2F)c(-n2cc(F)cn2)cc(Br)c1=O [Compound 468] | L (L shows the control value of 50% or less) | H (H shows the control value more than 50%) | H (H shows the control value more than 50%) |
| CCn1c(-c2ccc(N3CCCCC3)cc2F)c(-n2ncc(C)c2Cl)cc(Br)c1=O [Compound 469] | L (L shows the control value of 50% or less) | H (H shows the control value more than 50%) | H (H shows the control value more than 50%) |
| Cc1cnn(-c2cc(Br)c(=O)n(N(C)C)c2-c2ccc(F)cc2F)c1Cl [Compound 470] | L (L shows the control value of 50% or less) | H (H shows the control value more than 50%) | L (L shows the control value of 50% or less) |
| CCn1c(-c2ccccc2C#N)c(-n2cc(C)cn2)cc(Br)c1=O [Compound 471] | L (L shows the control value of 50% or less) | L (L shows the control value of 50% or less) | L (L shows the control value of 50% or less) |
| CCn1c(-c2ccccc2C#N)c(-n2ncc(C)c2Cl)cc(Br)c1=O [Compound 472] | L (L shows the control value of 50% or less) | H (H shows the control value more than 50%) | H (H shows the control value more than 50%) |
| Cc1cnn(-c2ccc(=O)n(C)c2-c2ccc(F)cc2Cl)c1 [Compound 474] | L (L shows the control value of 50% or less) | L (L shows the control value of 50% or less) | L (L shows the control value of 50% or less) |
